According to PubChem BioAssay AID1468 (National Center for Advancing Translational Sciences (NCATS), 2008):
The campaign covered roughly 280,000 compounds. About 1,100 (0.39%) were called active. This list was built around the results that the source calls inconclusive (neither active nor inactive); the mix of calls is not that of the screen. Calls come from the whole dose curve; as a rule, active = well fitted inhibition curve with a large enough effect; inconclusive = small, poorly fitted or top-dose-only effect, or effect the other way; inactive = flat fitted curve, though single readings scatter. Potencies of inconclusive entries are left out as doubtful fits.
% is set by controls: 0 for no effect and ±100 for the full control effect; potency is the fitted concentration of half-maximal effect; tags give direction and shape of the fitted curve.
Note: nearly all actives have a fitted effect of over 55% in size.

The compounds below were run against Microtubule-associated protein tau (Homo sapiens) (UniProt P10636) (assay: qHTS for Inhibitors of Tau Fibril Formation, Fluorescence Polarization). Conditions: K18 P301L tau heparin fibrillization, Alexa594 FP, 6 h; series mostly up to 57.7 µM; activity, negative = inhibition: at the top concentration.
Chain of UniProt P10636 (P10636 whole entry, looked up): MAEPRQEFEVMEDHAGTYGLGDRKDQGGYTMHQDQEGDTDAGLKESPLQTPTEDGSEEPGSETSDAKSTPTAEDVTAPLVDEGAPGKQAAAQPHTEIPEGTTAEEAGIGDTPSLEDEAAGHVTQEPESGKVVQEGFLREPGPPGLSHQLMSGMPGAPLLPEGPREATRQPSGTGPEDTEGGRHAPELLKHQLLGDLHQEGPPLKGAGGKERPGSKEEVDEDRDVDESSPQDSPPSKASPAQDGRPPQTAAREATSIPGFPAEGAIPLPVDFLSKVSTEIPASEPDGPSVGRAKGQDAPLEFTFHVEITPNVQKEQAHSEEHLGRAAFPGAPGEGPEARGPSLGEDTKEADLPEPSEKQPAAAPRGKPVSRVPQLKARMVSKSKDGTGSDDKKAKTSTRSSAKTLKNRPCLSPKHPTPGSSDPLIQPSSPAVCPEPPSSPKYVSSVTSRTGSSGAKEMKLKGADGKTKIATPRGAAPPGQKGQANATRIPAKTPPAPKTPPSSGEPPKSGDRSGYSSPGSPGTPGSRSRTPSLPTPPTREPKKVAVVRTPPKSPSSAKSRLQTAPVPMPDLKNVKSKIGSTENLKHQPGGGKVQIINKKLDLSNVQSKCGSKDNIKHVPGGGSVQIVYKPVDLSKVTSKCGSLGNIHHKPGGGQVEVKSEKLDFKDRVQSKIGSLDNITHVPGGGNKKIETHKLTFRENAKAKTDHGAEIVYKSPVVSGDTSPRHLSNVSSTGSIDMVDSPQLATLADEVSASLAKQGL
Procedure, shortened: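 FP of Alexa 594-tau after heparin (20 uM) induction. Substrate: human K18 P301L, 15 uM unlabeled, 0.24 uM labeled. Buffer 100 mM sodium acetate pH 7. 6 hr, 37 C.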
In the case of `COc1cccc(OCC(O)CN2CCN(c3ccccc3)CC2)c1` (stereo not given), the Potency is reported as inconclusive [activator, full curve, poor fit]. For `COc1ccc(/C=C2\SC(=O)NC2=S)cc1OC`, the Potency was inconclusive [inhibitor, partial curve]. With `COc1ccccc1NC(=O)c1cc2c(-c3ccccc3)nn(-c3ccccc3)c2s1` the Potency was inconclusive [inhibitor, single point]. In the case of `Cn1nnc(NC(=S)NC(=O)/C=C/c2ccco2)n1`, the “activity, negative = inhibition” value is reported as inactive: -10.5%. With `COc1ccc(OCc2nc3ccccc3n2Cc2ccc(C(C)(C)C)cc2)cc1` the “activity, negative = inhibition” value was inactive: 6.46%. In the case of `Cc1ccc(-c2csc(N3CCC(NS(=O)(=O)c4ccc5c(c4)OCCO5)CC3)n2)cc1`, the “activity, negative = inhibition” value is reported as inactive: 12.8%. In the case of `COc1ccc(C(=O)/C=C/Nc2ccc([N+](=O)[O-])cc2C)c(OC)c1`, the Potency is reported as inconclusive [inhibitor, single point]. With `Cc1ccsc1C1NC(=O)c2c(sc3c2CCCC3)N1` (stereo not given) the Potency was inconclusive [inhibitor, single point]. With `CCc1ccccc1NC(=O)CCn1cccn1` the “activity, negative = inhibition” value was inactive: 1.53%. For `CC1(OC(=O)CCc2ccccc2)C(=O)C=C2C=C3CCCN3C=C2C1=O` (stereo not given), the Potency was inconclusive [inhibitor, single point]. For `O=C(O)c1cc(-c2ccccc2)nn1Cc1ccccc1`, the “activity, negative = inhibition” value was inactive: 8%. In the case of `Cc1ccc(N2CCN(c3nc4ccc(C(=O)c5ccccc5)cc4n4cnnc34)CC2)c(C)c1`, the “activity, negative = inhibition” value is reported as inactive: -4.49%. For `O=C(Cc1coc2ccc3ccccc3c12)Nc1nccs1`, the Potency was inconclusive [inhibitor, single point]. In the case of `CN1C=CC(=C2C(=O)c3ccccc3C2=O)C=C1`, the “activity, negative = inhibition” value is reported as inactive: 6.05%. For `Cc1ccc(-n2c(N)c(C(=O)N3CCN(C)CC3)sc2=S)cc1`, the Potency was inconclusive [inhibitor, partial curve]. With `CC1CCC2(CC1)NC(=O)N(CC(=O)Nc1ccccc1-c1ccccc1)C2=O` (stereo not given) the “activity, negative = inhibition” value was inactive: -2.84%. With `Cc1ccn2c(Nc3ccccc3)c(-c3c[nH]c4ccccc34)nc2c1` the Potency was inconclusive [activator, single point]. In the case of `O=C(NCc1ccccc1Cl)C1=Cc2cc(Br)ccc2OC1`, the Potency is reported as inconclusive [inhibitor, single point]. With `FC(F)(F)c1cccc(N2CCN(c3nnnn3-c3ccccc3)CC2)c1` the Potency was inconclusive [activator, single point]. For `O=C(COC(=O)c1c2c(nc3ccccc13)/C(=C\c1cccs1)CCC2)Nc1ccccc1`, the Potency was inconclusive [inhibitor, partial curve]. In the case of `COC(=O)c1sccc1NC(=S)N(C)C1CCCCC1`, the Potency is reported as inconclusive [inhibitor, partial curve, poor fit]. In the case of `Cc1ccc(S(=O)(=O)NN2C(=O)/C(=C/c3cccs3)SC2=S)cc1`, the “activity, negative = inhibition” value is reported as inactive: 4.45%. `CCOC(=O)CCCCCCCCCCCCC1C=CCC1` (stereo not given) was tested, and the “activity, negative = inhibition” value was inactive: -2.29%. `CC(=O)Nc1cccc(-c2nnc(SCC(=O)c3cc([N+](=O)[O-])ccc3Cl)o2)c1` was tested, and the “activity, negative = inhibition” value was inactive: -9.72%. For `Cc1ccc(S(=O)(=O)/N=C(\c2ccccc2)N(C)S(=O)(=O)c2ccccc2)cc1`, the “activity, negative = inhibition” value was inactive: -0.521%. For `CN(C1=C(NC(=O)c2ccccc2)C(=O)c2ccccc2C1=O)C1CCS(=O)(=O)C1` (stereo not given), the Potency was inconclusive [inhibitor, partial curve]. `COc1ccc(C2C(C(=O)/C=C/c3ccco3)=C(O)C(=O)N2CCN2CCOCC2)cc1` (stereo not given) was tested, and the Potency was inconclusive [inhibitor, single point]. With `O=C(CSC1=NCCN1)Nc1ccccc1[N+](=O)[O-]` the Potency was inconclusive [inhibitor, single point]. `Cc1cccc(Nc2nc(-c3ccccc3)nc3ccccc23)c1` was tested, and the Potency was active: 8.91 µM. With `O=C(COCc1cc(-c2ccc(F)cc2)on1)Nc1cccc(C(F)(F)F)c1` the Potency was inconclusive [inhibitor, partial curve]. With `O=C(COC(=O)c1n[nH]c2ccccc12)Nc1ccc(Cl)cc1[N+](=O)[O-]` the Potency was inconclusive [activator, partial curve]. For `CN1CCCc2cc(C=O)ccc21`, the Potency was inconclusive [inhibitor, single point]. For `Cc1ccc(CSc2nnc3ccc(-c4ccncc4)nn23)cc1`, the Potency was inconclusive [inhibitor, partial curve]. In the case of `COc1ccccc1NC(=O)CC(=O)CSc1nnc(-c2ccc(C)cc2)n1-c1ccccc1`, the “activity, negative = inhibition” value is reported as inactive: 1.64%. `O=C(CSc1nc2c([nH]c3ccccc32)c(=O)n1-c1ccccc1F)Nc1cccc(Cl)c1` was tested, and the Potency was inconclusive [inhibitor, partial curve]. With `CCC(=O)N1CCc2cc(S(=O)(=O)CCC(=O)Nc3cc(Cl)ccc3OC)ccc21` the Potency was inconclusive [inhibitor, partial curve]. In the case of `CN(C)c1cccc2cccc(N(C)C)c12`, the Potency is reported as inconclusive [inhibitor, single point]. `Cc1cc(C)cc(NC(=O)NCc2noc3ccccc23)c1` was tested, and the Potency was inconclusive [inhibitor, partial curve]. For `COc1cc2oc(=O)cc(-c3ccc(-c4ccc(NC(C)=O)cc4)cc3)c2c(OC)c1OC`, the Potency was inconclusive [inhibitor, single point]. For `CCC(=O)N1CCCc2cc(S(=O)(=O)N3CCC(C(=O)NC4CCC(C)CC4)CC3)ccc21` (stereo not given), the “activity, negative = inhibition” value was inactive: -8.13%. `CCOc1ccccc1C(=O)Nc1cccc(-c2nc3ccccc3s2)c1` was tested, and the Potency was inconclusive [inhibitor, partial curve, poor fit]. `O=C(Cc1ccc(Cl)cc1)NC1CC(=O)N(c2ccc3c(c2)OCCO3)C1` (stereo not given) was tested, and the “activity, negative = inhibition” value was inactive: -4.84%. With `N#CC1=C(S)N(c2ccccc2)C(c2ccc(-c3cccc(Cl)c3)o2)NC1=O` (stereo not given) the Potency was inconclusive [inhibitor, partial curve]. `CSc1nc2ccc(NC(=O)c3ccc(F)c(F)c3)cc2s1` was tested, and the Potency was inconclusive [inhibitor, partial curve]. With `COc1ccc(-c2nnc3sc(C(C)N4C(=O)c5ccccc5C4=O)nn23)cc1` (stereo not given) the “activity, negative = inhibition” value was inactive: 5.73%. For `CC[n+]1ccc(/C=C2\Sc3ccccc3N2CCCS(=O)(=O)[O-])c2ccccc21`, the “activity, negative = inhibition” value was inactive: 0.133%. With `Cc1ccc(NC(=O)CN2C(=O)N/C(=C/c3ccco3)C2=O)cc1` the Potency was inconclusive [inhibitor, partial curve]. With `Cc1cc(C)c2cc(CN(Cc3ccc4c(c3)OCO4)Cc3nnnn3Cc3ccco3)c(=O)[nH]c2c1` the “activity, negative = inhibition” value was inactive: 2.75%. `CCOC(=O)c1cnc2c(ccc3ccccc32)c1Nc1ccccc1O` was tested, and the Potency was inconclusive [inhibitor, single point]. With `CCOC(=O)c1cccc(NC(=O)COc2ccc3c(C)cc(=O)oc3c2)c1` the Potency was inconclusive [inhibitor, single point]. With `Cc1ccc(CNC(=O)C2CCCN(Cc3nc(-c4cccc(C)c4)oc3C)C2)cc1` (stereo not given) the “activity, negative = inhibition” value was inactive: 6.81%. With `COc1ccc(C2CC(c3ccccc3)=NN2C(=O)CSc2nccc(=O)[nH]2)cc1` (stereo not given) the “activity, negative = inhibition” value was inactive: 3.39%. For `Cc1ccc(Nc2ccc(S(=O)(=O)N3CCOCC3)cc2[N+](=O)[O-])c(C)c1`, the Potency was inconclusive [activator, single point]. With `CC(/C=C/C=C/c1ccccc1)=N/NC(=O)c1ccc2c(c1)OCCO2` the Potency was inconclusive [inhibitor, single point]. In the case of `Cc1ccc(NC(=O)CCn2cnc3onc(-c4ccc(F)cc4)c3c2=O)c(Br)c1`, the Potency is reported as inconclusive [inhibitor, partial curve]. For `Cc1ccc(OCCOCCN2CCN(C)CC2)c([N+](=O)[O-])c1`, the “activity, negative = inhibition” value was inactive: -8.98%. With `O=C(Nc1ccccc1)c1cccnc1NCCc1ccccc1` the Potency was inconclusive [inhibitor, partial curve]. `CCOC(=O)N/N=C/C=C/c1ccccc1[N+](=O)[O-]` was tested, and the “activity, negative = inhibition” value was inactive: -0.307%. For `CCOc1ccc(-c2nnc(SCC(=O)Nc3cccc(Cl)c3C)o2)cc1`, the Potency was inconclusive [inhibitor, single point]. In the case of `O=C(NC(=O)c1cccc(OC(F)(F)C(F)F)c1)OC1CCS(=O)(=O)C1` (stereo not given), the Potency is reported as inconclusive [inhibitor, single point]. With `COc1ccc(NC(=O)c2ccc(NC(=O)COC(=O)CC(NC(=O)c3ccccc3Cl)c3ccccc3)cc2)cc1` (stereo not given) the Potency was inconclusive [inhibitor, partial curve]. With `O=C(O)/C(=C\c1ccc(Cl)c([N+](=O)[O-])c1)c1ccc(S(=O)(=O)N2CCCCC2)s1` the “activity, negative = inhibition” value was inactive: 6.94%. With `CC(C)=CCCC1=CC[C@H](C(=O)O)[C@H](C(=O)O)C1` the “activity, negative = inhibition” value was inactive: -0.965%. With `CC(C)(C)NC(=O)CC(CC(=O)O)c1ccccc1` (stereo not given) the Potency was inconclusive [inhibitor, full curve, poor fit]. In the case of `Cn1c(SC(C(=O)Nc2ccc(F)cc2)c2ccccc2)nc2ccccc21` (stereo not given), the Potency is reported as inconclusive [inhibitor, single point]. With `O=C(c1ccccc1)n1c(=S)nc2ccccn21` the Potency was inconclusive [inhibitor, partial curve]. `Cc1ccc2c(=O)cc(C(=O)Nc3nc4ccc(Cl)cc4s3)oc2c1` was tested, and the Potency was inconclusive [inhibitor, partial curve]. For `O=C(Nc1ccc(C(=O)OCc2cc(=O)n3c4c(sc3n2)CCCC4)cc1)c1cccc(F)c1`, the Potency was inconclusive [inhibitor, single point]. For `CN(C1CCCCC1)S(=O)(=O)c1ccc(NC(=O)c2ccc(Br)o2)cc1`, the Potency was inconclusive [inhibitor, partial curve]. `Cc1ccc(C(C)C)cc1NC(=O)Nc1ccc([N+](=O)[O-])cc1` was tested, and the Potency was active: 31.6 µM.
